Data on 172 sequences can be found in PMC10668032.

The list shows a part of the results. At the low end of the ranking the order means little.

In this experiment the target is SIX1 homeodomain (reference allele) (UniProt Q15475). Briefly: universal protein binding microarray. To be noted: Universal all-10-mer PBM (8x60K, AMADID 030236), 300 nM GST-tagged protein, Alexa Fluor 488 anti-GST; buffer, salt, pH and temperature not stated; high values mean tight binding; most listed sequences are background and not binding sites; double strand, one strand shown.
Turning to CCTGATGC, the binding signal was -0.0302 E-score.
For the sequence GCCCAAAA, the binding signal was -0.139 E-score.
In the case of AACAAGTG, the binding signal is -0.196 E-score.
Take AAAGTATC: the binding signal was found to be 0.413 E-score.
As for TAACCTTA, the figure is -0.0776 E-score.
Consider GGGGGTTA, for which the binding signal is 0.0849 E-score.
Regarding ATCAGTTA, the binding signal stood at 0.182 E-score.
As for ACGATGCA, the figure is -0.0233 E-score.
Regarding AAGTATGA, the binding signal was found to be 0.0829 E-score.
On to CCCATGAC, for which the binding signal is -0.128 E-score.
Take CGAAACAA: the binding signal came out at 0.0174 E-score.
As for AACGTGCG, the binding signal was -0.276 E-score.
Regarding CATTAGAA, the binding signal was -0.158 E-score.
For CGGTAACG, the binding signal is -0.101 E-score.
As for TGACGGAA, the binding signal is -0.306 E-score.
As for GGTGACAC, the figure is 0.346 E-score; as for AGACCTGC, -0.148 E-score; as for TCTCCTAA, 0.0629 E-score.
With GACCACAA, the binding signal is -0.0821 E-score.
Regarding CTCATGGC, the binding signal amounted to 0.078 E-score.
In the case of AATCGGTC, the binding signal was -0.126 E-score.
For ATCGGGCA, the binding signal amounted to 0.195 E-score.
Turning to AGCGCTGA, the binding signal is -0.138 E-score.
For the sequence GAATTCCC, the binding signal was -0.222 E-score.
In the case of GGTGGGTA, the binding signal is 0.101 E-score.
Next, ACAATAAC: -0.0887 E-score; AGTAGGCA: 0.0392 E-score.
In the case of AAACCCAC, the binding signal was 0.0669 E-score.
In the case of AACACTTA, the binding signal is -0.295 E-score.
As to GCCCGCAC, the binding signal is -0.227 E-score.
For the sequence GAATTCAC, the binding signal is -0.231 E-score.
Take GGAATAGA: the binding signal turned out to be 0.0724 E-score.
Next, AGAAGAGA: 0.059 E-score; CACACATG: -0.123 E-score; CAATGATA: 0.418 E-score.
With AGAAAATC, the binding signal was -0.127 E-score.
On to GCGTTTCC, for which the binding signal was -0.176 E-score.
As for CGAAGATC, the figure is 0.202 E-score; as for GTGTTCGA, 0.0775 E-score.
On to ACGGAGCC, for which the binding signal was -0.222 E-score.
For the sequence CAGGCACC, the binding signal was -0.0139 E-score.
Next, CAACACAA: -0.137 E-score.
Next, AACCCTCC: -0.206 E-score; TACGCTGA: 0.224 E-score; AGGCCTTA: -0.199 E-score.
As to AGTCATAA, the binding signal was -0.185 E-score.
On to GTAGCAAC, for which the binding signal was -0.187 E-score.
With ATTCCGGA, the binding signal came out at 0.106 E-score.
CAGGCAAG: the binding signal was -0.0906 E-score.
As for CATAGGGC, the figure is -0.149 E-score; as for ATATGGTA, 0.256 E-score.
In the case of TCACCACA, the binding signal is -0.0476 E-score.
Turning to CAAGCGAG, the binding signal stood at 0.02 E-score.
On to CACAACGC, for which the binding signal is -0.113 E-score.
As to CAGAGTCA, the binding signal was -0.142 E-score.
Regarding AGTGTGGG, the binding signal was -0.0742 E-score.
As to CTGAGAAG, the binding signal was found to be 0.0736 E-score.
Consider ACAGGTAA, for which the binding signal was -0.11 E-score.
Next, CGCCGAGA: 0.0577 E-score; CAATAGCC: -0.0899 E-score; CGACTTCC: -0.316 E-score.
Take AGGATCAA: the binding signal was 0.352 E-score.
In the case of AATAAACG, the binding signal is -0.119 E-score.
Regarding AAGATCAG, the binding signal is 0.195 E-score.
Turning to CGAGCCCC, the binding signal is 0.172 E-score.
Next, AGTTATCG: 0.19 E-score.
Consider CGCACCGC, for which the binding signal is -0.0543 E-score.
On to GTGTTAAC, for which the binding signal is -0.0456 E-score.
In the case of AAATGTGA, the binding signal was -0.112 E-score.
As to AGCGTATA, the binding signal was found to be 0.233 E-score.
For AATGGTAC, the binding signal was -0.184 E-score.
On to GGAAACTA, for which the binding signal is -0.0597 E-score.
As for GGCGTACA, the figure is -0.0813 E-score.
As for CCCAAGCA, the binding signal was found to be 0.263 E-score.
For AGAACCCA, the binding signal was -0.106 E-score.
As for ACCGGCTG, the figure is 0.00468 E-score.
GCTCCGTA: the binding signal stood at 0.008 E-score.
Turning to TATTGGAA, the binding signal was -0.118 E-score.
With AAGAACCG, the binding signal was -0.0662 E-score.
With GCTTTGAC, the binding signal was -0.253 E-score.
As to AGGCTTTG, the binding signal is -0.245 E-score.
For the sequence CACCGAGA, the binding signal was found to be 0.0619 E-score.
With ACGTTCGG, the binding signal is -0.148 E-score.
With ACGGTACG, the binding signal stood at 0.144 E-score.
Next, CGCCTGAA: 0.019 E-score.
For CAAAAAGG, the binding signal was -0.169 E-score.
On to AAAGGAAC, for which the binding signal is -0.136 E-score.
Regarding AATGATAG, the binding signal turned out to be 0.309 E-score.
Take ACCGCTAT: the binding signal was 0.216 E-score.
Next, ACTCAGAT: 0.226 E-score; GCGAAGAA: -0.287 E-score.
Turning to CAATAGGG, the binding signal was 0.148 E-score.
Next, ATAAGCCG: -0.0735 E-score; AACCGTAT: 0.275 E-score; TAGTAGGA: 0.0585 E-score.
AAAGAGGG: the binding signal was -0.0959 E-score.
In the case of CCGAAACC, the binding signal was 0.185 E-score.
Take ATGACTTC: the binding signal is -0.0987 E-score.
For the sequence ACTGTTCA, the binding signal was -0.261 E-score.
Take ATGCGGTG: the binding signal was 0.0513 E-score.
Next, CAGGCATG: -0.198 E-score; AGTTTCGA: 0.0297 E-score.
For CCGTACTA, the binding signal is 0.0475 E-score.
Turning to ATCATCCC, the binding signal worked out at 0.325 E-score.
As for CCAGATCA, the figure is 0.39 E-score; as for AAACTGAG, -0.0841 E-score; as for ACCGCACA, 0.0276 E-score.
For CATGCTAG, the binding signal came to 0.096 E-score.
ACCGTCGT: the binding signal was -0.136 E-score.
For the sequence TAACCAGA, the binding signal is -0.0692 E-score.
Consider CTCCCGAC, for which the binding signal stood at 0.00862 E-score.
In the case of ACACGGCT, the binding signal was 0.2 E-score.
On to CTGCGACC, for which the binding signal is -0.211 E-score.
As for CGCCGGTA, the binding signal is -0.0517 E-score.
AGGTCGTA: the binding signal is 0.0282 E-score.
For the sequence CCTGGGTC, the binding signal was found to be 0.0702 E-score.
Next, CACAGCTA: -0.0358 E-score; ATTAGAGG: 0.0169 E-score.
As to AACCACCA, the binding signal is -0.0199 E-score.
In the case of ATCCTCTC, the binding signal was found to be 0.264 E-score.
Consider GCCAATGA, for which the binding signal is -0.0233 E-score.
For the sequence AACCATAT, the binding signal is 0.303 E-score.
Next, CAGAATCC: -0.0189 E-score; GAATTCGC: -0.0658 E-score.
Next, ACCCTTCA: 0.0406 E-score; AATGTTGG: -0.197 E-score; CCTCTTCG: 0.0534 E-score.
For the sequence TTCGCGAA, the binding signal is -0.0959 E-score.
Take TCTTCTCA: the binding signal turned out to be 0.147 E-score.
ACTGCTTA: the binding signal was -0.22 E-score.
ACTGTTAG: the binding signal was -0.207 E-score.
Take ACAGCATA: the binding signal came out at 0.0833 E-score.
As to ACAGATCT, the binding signal is 0.11 E-score.
Next, CATACCCC: 0.258 E-score; CCTGTAAC: -0.104 E-score.
Turning to ACGTGCAA, the binding signal is -0.24 E-score.
For CCCATAGA, the binding signal is -0.108 E-score.
Turning to GATACGTA, the binding signal is 0.429 E-score.
Regarding AACCGTAC, the binding signal was -0.00198 E-score.
For CCATTAGA, the binding signal worked out at 0.00933 E-score.
Next, AAGAAGTG: -0.103 E-score.
Consider CCCCCGAG, for which the binding signal was -0.0968 E-score.
As to CAAGAGTC, the binding signal was -0.233 E-score.
ATTGAGCG: the binding signal worked out at 0.0633 E-score.
As for CGCCGATA, the figure is 0.376 E-score; as for CACTTATC, 0.152 E-score; as for CTATAAAA, -0.0451 E-score.
Consider CGCTTTAG, for which the binding signal is 0.0361 E-score.
Next, ACTACCAT: -0.0233 E-score; GGCTGATA: 0.422 E-score; ACATGGAA: -0.144 E-score.
For the sequence ATCTAGTG, the binding signal worked out at 0.145 E-score.
Consider ATGTACTC, for which the binding signal came out at 0.0282 E-score.
Consider AGAGCTCG, for which the binding signal is -0.0892 E-score.
As to GATTGCCC, the binding signal is -0.156 E-score.
Consider AGCGGTTA, for which the binding signal is -0.233 E-score.
As for CGGTGAAG, the binding signal is 0.0317 E-score.
As for ACTTTGCG, the binding signal was -0.0368 E-score.
Regarding GAAAGCCC, the binding signal is -0.0185 E-score.
With CCTGGCCC, the binding signal was -0.248 E-score.
As to CACTTCAG, the binding signal is -0.0713 E-score.
In the case of GAGCAGGA, the binding signal came to 0.00201 E-score.
Next, CCTGTCTC: 0.123 E-score.
AAAATTCC: the binding signal was -0.264 E-score.
Regarding GATAAGCC, the binding signal was 0.0917 E-score.
For CCTAACCA, the binding signal is -0.119 E-score.
For AGGTGAAC, the binding signal was -0.06 E-score.
Turning to ATATTCAA, the binding signal was found to be 0.155 E-score.
Turning to GCCTAGTA, the binding signal turned out to be 0.00981 E-score.
For the sequence AGGTCGCA, the binding signal was -0.127 E-score.
Regarding AGCTGCAA, the binding signal was -0.225 E-score.
Regarding GACGTCAC, the binding signal was -0.127 E-score.
